Results are given in words; binding and its absence hold for the method and conditions named. Binding seen in cells or lysates may run through a third protein. Some results given as binding are weak or reduced against the parent protein; the word gives no strength. Sequences can lack the tags named with a protein.
Tests used:
Experiment in all cases: co-IP; HEK293T cells co-transfected with Flag- and HA-tagged plasmids; lysis in 50 mM Tris-HCl pH 7.5, 300 mM NaCl, 1% Triton-X, 5 mM EDTA, 10% glycerol; IP with anti-Flag antibody and Protein-G Sepharose, immunoblot with anti-HA and anti-Flag; in some panels cells treated with DMSO or ATP (5 mM) for 2 h; Fig. 6d-g shown as pairs of IPs whose antibodies the legend does not name
[1] = target: T1, Flag-USP13(1–300) (human) (UniProt Q92995)
T1 sequence: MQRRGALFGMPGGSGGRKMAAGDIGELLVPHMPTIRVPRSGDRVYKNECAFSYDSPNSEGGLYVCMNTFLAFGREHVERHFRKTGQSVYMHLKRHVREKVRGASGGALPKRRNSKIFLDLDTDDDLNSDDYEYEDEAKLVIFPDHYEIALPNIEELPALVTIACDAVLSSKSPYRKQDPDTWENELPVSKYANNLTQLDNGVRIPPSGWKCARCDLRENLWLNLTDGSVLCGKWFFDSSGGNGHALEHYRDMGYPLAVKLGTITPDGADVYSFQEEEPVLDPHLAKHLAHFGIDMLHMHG

Amino acid sequences for entries named in this document (tags omitted).
UniProt P49023: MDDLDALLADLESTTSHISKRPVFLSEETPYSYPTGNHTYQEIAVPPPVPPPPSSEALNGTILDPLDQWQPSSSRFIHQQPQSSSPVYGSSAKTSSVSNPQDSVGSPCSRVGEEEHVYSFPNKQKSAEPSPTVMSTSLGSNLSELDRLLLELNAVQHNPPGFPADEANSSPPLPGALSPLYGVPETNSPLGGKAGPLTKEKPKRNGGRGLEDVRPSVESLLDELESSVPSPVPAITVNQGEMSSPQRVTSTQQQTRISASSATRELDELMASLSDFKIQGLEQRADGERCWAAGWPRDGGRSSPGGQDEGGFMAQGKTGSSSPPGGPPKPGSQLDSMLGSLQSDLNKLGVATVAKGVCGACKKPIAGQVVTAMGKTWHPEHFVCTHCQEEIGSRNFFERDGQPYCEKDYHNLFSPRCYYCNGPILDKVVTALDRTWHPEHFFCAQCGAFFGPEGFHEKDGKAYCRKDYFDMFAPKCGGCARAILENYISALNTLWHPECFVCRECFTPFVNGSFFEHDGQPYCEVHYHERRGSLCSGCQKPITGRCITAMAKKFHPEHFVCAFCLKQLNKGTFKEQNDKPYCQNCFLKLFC

Flag-P2X7R(29–595) = target: T2, Flag-P2X7R(29–595) (UniProt Q99572)
T2 sequence: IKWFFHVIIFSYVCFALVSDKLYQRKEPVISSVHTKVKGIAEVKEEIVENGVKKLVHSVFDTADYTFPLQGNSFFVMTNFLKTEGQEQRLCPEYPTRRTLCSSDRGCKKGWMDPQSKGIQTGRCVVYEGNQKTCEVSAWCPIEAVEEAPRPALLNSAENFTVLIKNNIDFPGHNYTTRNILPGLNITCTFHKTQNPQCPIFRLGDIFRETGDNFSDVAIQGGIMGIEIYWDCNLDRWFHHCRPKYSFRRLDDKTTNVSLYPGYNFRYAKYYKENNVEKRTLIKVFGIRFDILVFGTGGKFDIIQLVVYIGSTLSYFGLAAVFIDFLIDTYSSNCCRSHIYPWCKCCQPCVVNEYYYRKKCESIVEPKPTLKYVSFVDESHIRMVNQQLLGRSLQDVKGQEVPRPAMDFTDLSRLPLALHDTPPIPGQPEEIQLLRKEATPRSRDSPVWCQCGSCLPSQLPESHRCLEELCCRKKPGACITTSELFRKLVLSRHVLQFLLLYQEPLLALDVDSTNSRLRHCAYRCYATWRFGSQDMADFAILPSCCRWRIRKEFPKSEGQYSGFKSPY

Flag-P2X7R(35–595) = target: T3, Flag-P2X7R(35–595) (UniProt Q99572)
T3 sequence: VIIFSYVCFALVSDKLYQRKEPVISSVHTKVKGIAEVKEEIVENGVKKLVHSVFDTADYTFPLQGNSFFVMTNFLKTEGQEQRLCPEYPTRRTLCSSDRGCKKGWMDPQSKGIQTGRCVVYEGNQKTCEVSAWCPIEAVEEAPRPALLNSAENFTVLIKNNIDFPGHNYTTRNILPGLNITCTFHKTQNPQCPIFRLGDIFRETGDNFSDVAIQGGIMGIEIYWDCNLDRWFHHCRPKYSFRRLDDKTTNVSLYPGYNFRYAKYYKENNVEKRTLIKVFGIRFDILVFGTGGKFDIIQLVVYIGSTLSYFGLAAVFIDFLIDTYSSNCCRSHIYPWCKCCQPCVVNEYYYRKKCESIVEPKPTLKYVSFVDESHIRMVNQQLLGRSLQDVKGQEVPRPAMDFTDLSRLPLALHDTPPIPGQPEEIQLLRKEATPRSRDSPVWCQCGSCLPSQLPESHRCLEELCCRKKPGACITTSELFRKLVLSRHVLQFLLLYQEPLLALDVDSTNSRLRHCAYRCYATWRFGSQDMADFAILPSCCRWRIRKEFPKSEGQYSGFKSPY

Flag-P2X7R(K30A) = target: T4, Flag-P2X7R(K30A) (UniProt Q99572)
T4 sequence: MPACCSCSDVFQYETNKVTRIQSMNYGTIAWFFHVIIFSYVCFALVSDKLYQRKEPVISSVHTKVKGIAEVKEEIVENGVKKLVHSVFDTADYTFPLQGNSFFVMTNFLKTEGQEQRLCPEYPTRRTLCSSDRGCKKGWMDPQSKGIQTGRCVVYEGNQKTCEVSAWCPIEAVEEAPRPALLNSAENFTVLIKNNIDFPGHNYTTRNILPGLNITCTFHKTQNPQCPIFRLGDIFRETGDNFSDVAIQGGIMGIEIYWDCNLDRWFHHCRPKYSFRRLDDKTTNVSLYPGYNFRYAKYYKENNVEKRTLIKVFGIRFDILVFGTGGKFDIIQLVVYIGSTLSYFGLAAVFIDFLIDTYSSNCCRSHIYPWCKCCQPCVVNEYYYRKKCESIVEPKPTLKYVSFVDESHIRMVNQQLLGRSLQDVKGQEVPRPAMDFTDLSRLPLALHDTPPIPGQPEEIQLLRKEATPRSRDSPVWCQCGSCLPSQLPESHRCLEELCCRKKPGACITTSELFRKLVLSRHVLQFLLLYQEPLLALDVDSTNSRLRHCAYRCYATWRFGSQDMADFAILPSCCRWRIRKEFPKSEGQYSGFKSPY

HA-Paxillin (from UniProt P49023 1-591) was tested, and the binding [1] was “binds”, the binding (Flag-P2X7R(29–595)) was “binds” and the binding (Flag-P2X7R(35–595)) was “no binding”. For the same substance, the binding (Flag-P2X7R(K30A)) was “no binding”.
